{"source": "PubChem BioAssay AID1645887", "about": "(National Center for Advancing Translational Sciences (NCATS), 2021)", "note": "Where “and” joins values, the source holds several entries; their conditions need not be identical. Equal entries are not always repeated. The whole screen tested about 16,000 compounds, of which about 40 (0.2%) were called active. Another 1% or so got no clear call; they are omitted. Calls follow the shape of the dose curve; as a rule, active = well fitted activation curve with a large enough effect; inconclusive = small, poorly fitted or top-dose-only effect, or another doubt; inactive = no such curve, though single readings can be large or run the other way. The list shows a part of the results. % is scaled to controls: 0 for no effect and ±100 for the full control effect; potency is read from the fitted curve at half-maximal effect."}
{"target": "Rap guanine nucleotide exchange factor 4 (Homo sapiens) (UniProt Q8WZA2)", "sequence (Q8WZA2 whole entry, looked up)": "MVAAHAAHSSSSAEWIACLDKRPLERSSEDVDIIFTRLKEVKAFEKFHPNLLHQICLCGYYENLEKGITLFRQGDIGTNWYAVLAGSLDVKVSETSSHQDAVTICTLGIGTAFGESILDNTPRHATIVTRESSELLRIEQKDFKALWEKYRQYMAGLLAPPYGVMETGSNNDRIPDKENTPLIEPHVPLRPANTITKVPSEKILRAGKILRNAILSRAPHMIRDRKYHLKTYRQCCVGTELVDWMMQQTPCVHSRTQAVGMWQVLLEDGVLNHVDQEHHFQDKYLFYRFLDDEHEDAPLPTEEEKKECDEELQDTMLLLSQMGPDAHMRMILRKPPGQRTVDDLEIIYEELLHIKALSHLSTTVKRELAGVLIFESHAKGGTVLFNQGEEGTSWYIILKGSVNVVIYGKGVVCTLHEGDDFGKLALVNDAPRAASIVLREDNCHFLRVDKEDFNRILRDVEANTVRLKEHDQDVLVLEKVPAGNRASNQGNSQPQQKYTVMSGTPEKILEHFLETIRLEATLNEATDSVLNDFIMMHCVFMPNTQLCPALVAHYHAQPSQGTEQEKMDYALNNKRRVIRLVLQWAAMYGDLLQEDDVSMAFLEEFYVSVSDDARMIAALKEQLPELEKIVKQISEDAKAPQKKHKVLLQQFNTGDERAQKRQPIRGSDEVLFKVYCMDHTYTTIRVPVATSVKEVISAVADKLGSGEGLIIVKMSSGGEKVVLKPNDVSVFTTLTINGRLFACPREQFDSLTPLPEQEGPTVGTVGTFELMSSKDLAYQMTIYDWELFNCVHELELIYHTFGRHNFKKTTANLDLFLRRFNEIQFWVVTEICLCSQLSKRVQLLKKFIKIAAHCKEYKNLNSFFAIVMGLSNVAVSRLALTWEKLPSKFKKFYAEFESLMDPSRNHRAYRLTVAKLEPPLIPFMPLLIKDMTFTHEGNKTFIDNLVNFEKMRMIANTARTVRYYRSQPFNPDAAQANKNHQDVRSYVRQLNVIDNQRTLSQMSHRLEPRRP", "experiment": "Validation qHTS for agonist of cAMP-regulated guanine nucleotide exchange factor 4 (EPAC2);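 as to activation: exchange makes BODIPY-GDP fluorescence drop when released from Rap1B; series mostly up to about 150 µM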", "conditions": "EPAC2 Rap1B BODIPY-GDP exchange, fluorescence; activation: hits give high values", "method_in_brief": "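Fluorescent exchange assay: 100 nM EPAC2 with 250 nM RAP1B-BODIPY-GDP and 50 uM GDP; compound added, 5 min at room temperature, then read (ex 480/em 540 nm) every 5 min for 30 min. Normalized to 6.5 mM cAMP agonist control.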"}
{"smiles": "CC(CCc1ccccc1)NC(C)C(O)c1ccc(O)cc1", "note": "(stereo not given)", "activation": "inactive: -1.06% and inactive: 24.8% and inactive: -16%"}
{"smiles": "CCCOC(=O)Cc1ccc(OCC(=O)N(CC)CC)c(OC)c1", "activation": "inactive: -40.3%"}
{"smiles": "CCC(=O)O[C@]1(c2ccccc2)CCN(C)C[C@H]1C", "activation": "inactive: -4.23%"}
{"smiles": "C[C@]12CC[C@H](OS(=O)(=O)O)CC1=CC[C@@H]1[C@@H]2CC[C@]2(C)C(=O)CC[C@@H]12", "activation": "inactive: 29.2%"}
{"smiles": "Cc1o[nH]c(=O)c1C[C@@H](N)C(=O)O", "activation": "inactive: -14.3%"}
{"smiles": "NC(=NCCC[C@H](N)C(=O)O)N[N+](=O)[O-]", "activation": "inactive: -0.298% and inactive: -15.8%"}
{"smiles": "O=c1[nH]cc(N(CCCl)CCCl)c(=O)[nH]1", "Potency": "active: 100 µM"}
{"smiles": "Cc1c(C(=O)c2cccc3ccccc23)c2cccc3c2n1[C@H](CN1CCOCC1)CO3", "activation": "inactive: -14.1% and inactive: -42.9%"}
{"smiles": "O=Cc1ccccc1", "activation": "inactive: 19.2% and inactive: -16.8%"}
{"smiles": "CCCN(C/C=C/I)C1CCc2ccc(O)cc2C1", "note": "(stereo not given)", "activation": "inactive: -8.74%"}
{"smiles": "N=C(N)c1ccc(CS(=O)(=O)F)cc1", "activation": "inactive: -36.6%"}
{"smiles": "COP(=S)(OC)Oc1ccc([N+](=O)[O-])cc1", "activation": "inactive: 0.0624%"}
{"smiles": "O=c1oc2ccccc2c(O)c1C(CC(O)c1ccc(-c2ccc(Br)cc2)cc1)c1ccccc1", "note": "(stereo not given)", "activation": "inactive: -14.5%"}
{"smiles": "CC(C)[C@H](NC(=O)[C@H](CCC(=O)O)NC(=O)[C@H](Cc1ccccc1)NC(=O)[C@H](C)NC(=O)[C@@H](N)Cc1ccc(O)cc1)C(=O)N[C@H](C(=O)NCC(N)=O)C(C)C", "activation": "inactive: 5.7%"}
{"smiles": "CCN[C@@H](C)Cc1cccc(C(F)(F)F)c1", "activation": "inactive: -8.14%"}
{"smiles": "CCCCCCCCCCCCCCCCOC[C@H](COP(=O)([O-])OCC[N+](C)(C)C)OC(C)=O", "activation": "inactive: -13.5%"}
{"smiles": "CC1(C)C(O)CC(=O)[C@]2(C)C1CC(=O)[C@]1(C)C2CC[C@@]2(C)C(c3ccoc3)OC(=O)C3O[C@@]321", "note": "(stereo not given in full)", "activation": "inactive: -10.4%"}
{"smiles": "CCN1C[C@@]2(COC(=O)c3ccccc3N3C(=O)CC(C)C3=O)CC[C@H](OC)[C@]34C5C[C@@H]6[C@@H](OC)C[C@@](O)(C5[C@H]6OC)[C@@](O)(C13)[C@@H](OC)C24", "note": "(stereo not given in full)", "activation": "inactive: -28.8%"}
{"smiles": "O=C(O)C(Cl)(Cl)Cl", "activation": "inactive: 10.9%"}
{"smiles": "CC(C)Nc1ccc(Nc2ccccc2)cc1", "activation": "inactive: -10.9%"}
{"smiles": "NCCc1cccc(O)c1", "activation": "inactive: 0.909% and inactive: -7.62%"}
{"smiles": "O[C@H]1[C@H]2[C@H](O)CCCN2C[C@H]1O", "activation": "inactive: -5.99%"}
{"smiles": "CNC(=O)NC(O)C(Cl)(Cl)Cl", "note": "(stereo not given)", "activation": "inactive: -7.08%"}
{"smiles": "O=c1ccc2c(O)c3ccoc3cc2o1", "activation": "inactive: -15.1%"}
{"smiles": "O=C(Oc1ccccc1)N1CCC[C@@]2(CCN(Cc3nccs3)C2)C1", "activation": "inactive: -25.8%"}
{"smiles": "Oc1ccc(-c2cccnc2)cc1CNC1CN2CCC1CC2", "note": "(stereo not given)", "activation": "inactive: -17%"}
{"smiles": "ClC1=C(Cl)C2(Cl)C3C(Cl)C=CC3C1(Cl)C2(Cl)Cl", "note": "(stereo not given)", "activation": "inactive: -22.1%"}
{"smiles": "O=C1CC2OCC=C3CN4CC[C@]56c7ccccc7N1[C@H]5[C@H]2C3C[C@H]46", "note": "(stereo not given in full)", "activation": "inactive: -7.32%"}
{"smiles": "O=c1cccc2n1CC1CNCC2C1", "note": "(stereo not given)", "activation": "inactive: -3.64% and inactive: -10.2%"}
{"smiles": "Oc1ccc2c3c1O[C@H]1c4[nH]c5ccccc5c4C[C@@]4(O)C(C2)N(CC2CC2)CCC314", "note": "(stereo not given in full)", "activation": "inactive: 12.4% and inactive: -25.4%"}
{"smiles": "Cc1ccc2c(c1)C1CN(C)CCC1N2", "note": "(stereo not given)", "activation": "inactive: -23.6%"}
{"smiles": "CC(N)Cc1c[nH]c2ccc(OCc3cccs3)cc12", "note": "(stereo not given)", "activation": "inactive: 6.93% and inactive: -18.3%"}
{"smiles": "C[C@@H]1C[C@@H](O)[C@@]2(O)[C@]13CC(=O)OC[C@]2(C)[C@@](C)(O)C(=O)C3", "activation": "inactive: -2.11%"}
{"smiles": "Oc1cccc[c]1[Hg][Cl]", "activation": "inactive: -10.1%"}
{"smiles": "O=C1C=C2C=C[C@@H]3C[C@@]2(O1)[C@H]1CCCCN31", "activation": "inactive: -3.61% and inactive: -2.31%"}
{"smiles": "CCC(=O)OC1(c2ccccc2)CCN(C)CC1", "activation": "inactive: -4.54%"}
{"smiles": "N#Cc1c(Cl)cccc1Cl", "activation": "inactive: 2.21%"}
{"smiles": "CN1CCC(c2c[nH]c3ccc(O)cc23)CC1", "activation": "inactive: 0.829% and inactive: -7.61% and inactive: -16.9%"}
{"smiles": "CN(CCC(N)CC(=O)NC1C=CC(n2ccc(N)nc2=O)OC1C(=O)O)C(=N)N", "note": "(stereo not given)", "activation": "inactive: -6.34%"}
{"smiles": "Clc1ccccc1Cl", "activation": "inactive: -21.3%"}
{"smiles": "Cc1ncc2n1-c1ccc(Cl)cc1C(c1ccccc1F)=NC2", "activation": "inactive: -24.2%"}
{"smiles": "O=C(O)c1cc(Oc2ccc(C(F)(F)F)cc2Cl)ccc1[N+](=O)[O-]", "activation": "inactive: -25.6%"}
{"smiles": "C[N+](C)(C)CC#CCN1CCCC1=O", "activation": "inactive: -11.7% and inactive: 0.057%"}
{"smiles": "CCOC(=O)CN1C(=O)CC(C[C@@H](O)C2C[C@@H](C)C[C@H](C)C2=O)CC1=O", "note": "(stereo not given in full)", "activation": "inactive: -23.2%"}
{"smiles": "Cc1nnc2n1-c1sc(CCc3ccc(CC(C)C)cc3)cc1C(c1ccccc1Cl)=NC2C", "note": "(stereo not given)", "activation": "inactive: -43.7%"}
{"smiles": "Nc1ccc(Sc2ccc(N)cc2)cc1", "activation": "inactive: -20.3%"}
{"smiles": "NNCc1ccccc1", "activation": "inactive: -5.42%"}
{"smiles": "NC(=O)c1ccc(OCC(O)CN2CC=C(c3ccc(F)cc3)CC2)cc1", "note": "(stereo not given)", "activation": "inactive: -7.82%"}
{"smiles": "CC(C)=CC1C(C(=O)OCc2cccc(Oc3ccccc3)c2)C1(C)C", "note": "(stereo not given)", "activation": "inactive: 4.91%"}
{"smiles": "CC[C@]1(O)CC(O[C@@H]2CC(N(C)C)C(O)C(C)O2)c2c(cc3c(c2O)C(=O)c2c(O)ccc(O)c2C3=O)C1C(=O)OC", "note": "(stereo not given in full)", "activation": "inactive: -15.2%"}
{"smiles": "COc1ccc(CNC(=O)/C=C/c2ccc3[nH]cc(CCN(C)C)c3c2)cc1", "activation": "inactive: -34.2%"}
{"smiles": "COC1C(O)C(C)O[C@H](OC2CC[C@@]3(C=O)C4CC[C@]5(C)C(C6=CC(=O)OC6)CC[C@@]5(O)C4CC[C@@H]3C2)C1O", "note": "(stereo not given in full)", "activation": "inactive: 0.118%"}
{"smiles": "C[C@]12[C@H](O)CC3C(CC[C@@H]4C[C@@H](O)CC[C@]34C)[C@@]1(O)CC[C@@H]2C1=CC(=O)OC1", "note": "(stereo not given in full)", "activation": "inactive: 2.41%"}
{"smiles": "CO/C=C(/C(=O)OC)c1ccccc1Oc1cc(Oc2ccccc2C#N)ncn1", "activation": "inactive: -33%"}
{"smiles": "CC[C@]1(O)CC(O[C@@H]2CC(N(C)C)C(O)C(C)O2)c2c(cc3c(c2O)C(=O)c2c(O)cccc2C3=O)C1C(=O)OC", "note": "(stereo not given in full)", "activation": "inactive: 1.66%"}
{"smiles": "CN=C1CN(O)C(c2ccccc2)=c2cc(Cl)ccc2=N1", "activation": "inactive: -1.18% and inactive: 3.28%"}
{"smiles": "NC(=O)CN1CC(O)CC1=O", "note": "(stereo not given)", "activation": "inactive: -3.63% and inactive: -11.7%"}
{"smiles": "CCOC(=O)NC(C)(C)Cc1ccc(Cl)cc1", "activation": "inactive: -3%"}
{"smiles": "C[C@]12CCC(=O)C[C@@H]1CC[C@@H]1[C@@H]2CC[C@@]2(C)[C@H]1CC[C@]2(C)O", "activation": "inactive: 0.244%"}
{"smiles": "CN1CCC(=O)N(CCN=[N+]=[N-])CC1", "activation": "inactive: -6.9%"}
{"smiles": "CC(=O)OC1CC(OC(C)=O)[C@]2(C)C(CC(OC(C)=O)[C@]3(C)C2CC[C@@]2(C)C(c4ccoc4)C[C@H]4O[C@]432)C1(C)C", "note": "(stereo not given in full)", "activation": "inactive: -14.9%"}
{"smiles": "O=C1CC[C@@]2(O)[C@H]3Cc4ccc(O)c5c4[C@@]2(CCN3CC2CC2)[C@@H]1O5", "activation": "inactive: -4.11%"}
{"smiles": "CC(C)[C@@]1(NC(=O)[C@@H]2C[C@H]3c4cccc5[nH]cc(c45)C[C@@H]3N(C)C2)O[C@@]2(O)[C@H]3CCCN3C(=O)[C@H](Cc3ccccc3)N2C1=O", "activation": "inactive: 5.13% and inactive: -22.2%"}
{"smiles": "COc1ccn(C)c(=O)c1C#N", "activation": "inactive: 4.11%"}
{"smiles": "CC(CO)NC(=O)C1C=C2c3cccc4[nH]cc(c34)C[C@H]2N(C)C1", "note": "(stereo not given in full)", "activation": "inactive: -6.28%"}
{"smiles": "CC(N)Cc1ccc2c(c1)OCO2", "note": "(stereo not given)", "activation": "inactive: -2.6%"}
{"smiles": "CO[C@H]1CC=C2CCN3CCC4=C(CC(=O)OC4)[C@]23C1", "activation": "inactive: 4.63% and inactive: -36%"}
{"smiles": "c1cc(CN2CCCC3(CCNCC3)C2)ccn1", "activation": "inactive: -4.81%"}
{"smiles": "COc1cc(C2c3cc4c(cc3C(OC(C)=O)[C@H]3COC(=O)C23)OCO4)cc(OC)c1OC", "note": "(stereo not given in full)", "activation": "inactive: -22.8% and inactive: 0.431%"}
{"smiles": "N[C@]1(C(=O)O)CC[C@@H](C(=O)O)C1", "note": "(racemic)", "activation": "inactive: 0.419% and inactive: 3.33%"}
{"smiles": "COc1cc2c(cc1OC)-c1c(OC)c(OC)c(CO)c3c1C(C2)N(C)CC3", "note": "(stereo not given)", "activation": "inactive: 9.27%"}
{"smiles": "Cl.Cl.Cl.Cl.Cl.Cl.N.N.N.N.NNNNN.NNNNN.O.O.[Ru].[Ru].[Ru]", "activation": "inactive: -33.5%"}
{"smiles": "CN1CCCCC1c1cccnc1", "note": "(stereo not given)", "activation": "inactive: -9.81%"}
{"smiles": "C[C@]12CC[C@@H]3[C@@H](CCC4=CC(=O)CC[C@@H]43)[C@@H]1CC[C@@H]2OC(=O)CCc1ccccc1", "activation": "inactive: -0.868%"}
{"smiles": "COc1ccccc1CN1CCCC2(CCN(C(=O)Oc3ccccc3)CC2)C1", "activation": "inactive: -12.7%"}
{"smiles": "Nc1ccncc1", "activation": "inactive: -1.4% [middle of 5 runs]"}
{"smiles": "CC[C@H](C)[C@H](NC(=O)[C@H](CCCN=C(N)N)NC(=O)[C@H](CCCN=C(N)N)NC(=O)[C@H](CC(C)C)NC(=O)[C@H](Cc1ccccc1)NC(=O)CNC(=O)CNC(=O)[C@@H](N)Cc1ccc(O)cc1)C(=O)N[C@@H](CCCN=C(N)N)C(=O)N1CCC[C@H]1C(=O)N[C@@H](CCCCN)C(=O)N[C@@H](CC(C)C)C(=O)N[C@@H](CCCCN)C(=O)O", "activation": "inactive: -12.6%"}
{"smiles": "C[N+]1(CCF)[C@@H]2CC[C@H]1CC(OC(=O)C(O)(c1ccccc1)c1ccccc1)C2", "note": "(stereo not given in full)", "activation": "inactive: 6.52%"}
{"smiles": "NC1(c2ccccc2)CCCCC1", "activation": "inactive: 9.13%"}
{"smiles": "C[N+]1(C)CCOC(O)(c2ccc(-c3ccc(C4(O)C[N+](C)(C)CCO4)cc3)cc2)C1", "note": "(stereo not given)", "activation": "inactive: -0.781% and inactive: 0.792%"}
